# This is one part of the list. Sequences were assembled here from the parent chain. Inactive controls read about 0.05.
# B1: TEV protease; numbered along this chain (parent)
# chain: MGESLFKGPRDYNPISSSICHLTNESDGHTTSLYGIGFGPFIITNKHLFRRNNGTLVVQSLHGVFKVKDTTTLQQHLVDGRDMIIIRMPKDFPPFPQKLKFREPQREERICLVTTNFQTKSMSSMVSDTSCTFPSGDGIFWKHWIQTKDGQCGSPLVSTRDGFIVGIHSASNFTNTNNYFTSVPKNFMELLTNQEAQQWVSGWRLNADSVLWGGHKVFMVKPEEPFQPVKEATQL
# Variants of: B1
# Assay: raw area under fraction-flipped curve 0-4 h after induction (AUC4h, not background-subtracted), DNA-recorder readout of cleavage of the substrate (dimensionless); higher = more cleavage of the substrate by the protease variant
# Conditions: temperature: 34 °C; time window: 0-4 h after rhamnose induction
# Description: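 In vivo DNA recorder in E. coli TOP10(DE3) ΔrhaA at 34 °C. Each TEVp single-site mutant (parent TEVp 0) is paired with a single-site variant of the 7-mer TEVs (canonical ENLYFQ|S). The substrate sits between flexible linkers in a Bxb1-sfGFP-TEVs-SsrA fusion, so cleavage stabilises Bxb1 and speeds flipping of a recombination array, read by NGS. The value is the raw area under the fraction-flipped curve over 0-4 h after rhamnose induction (AUC4h), with ≥20 reads per time point. It is not background-subtracted; inactive controls average about 0.047.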
# 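Also: Bxb1 expression induced with 0.2% (w/v) L-rhamnose at OD600 near 0.5, cultures sampled hourly, flipped fraction per protease–substrate barcode pair counted by paired-end Illumina sequencing.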
Variant,area with substrate ENLAFQS,area with substrate ENLDFQS,area with substrate ENLEFQS,area with substrate ENLHFQS,area with substrate ENLIFQS,area with substrate ENLMFQS,area with substrate ENLNFQS,area with substrate ENLPFQS,area with substrate ENLQFQS,area with substrate ENLRFQS,area with substrate ENLSFQS,area with substrate ENLVFQS,area with substrate ENLCFQS,area with substrate ENLFFQS,area with substrate ENLKFQS,area with substrate ENLLFQS,area with substrate ENLGFQS,area with substrate ENLWFQS,area with substrate ENLTFQS
S124W,0.0792,0.0643,0.0622,0.0699,0.104,0.0651,0.0461,0.0514,0.0717,0.0669,0.0583,0.0932,,,,,,,
M125N,0.0681,0.0656,,0.0707,0.0595,0.0654,0.0659,0.0574,0.055,0.0775,0.0772,0.0834,0.0685,0.0925,0.0672,0.0641,,,
M125V,0.0743,,0.0668,0.0747,,0.0709,0.0592,,,0.0773,0.0622,,0.073,0.0901,0.0507,0.0465,0.0565,0.0699,
M125T,0.0586,0.0627,0.0668,0.0741,0.0748,0.0962,0.0629,0.0672,0.0769,0.0912,0.0486,0.0691,0.0674,0.106,0.083,0.0468,0.103,0.0723,0.0742
V126N,0.0535,0.0551,,0.0682,,0.0723,0.0628,0.0569,,,0.0509,0.0757,0.0698,0.0945,,0.0657,,0.0686,0.0642
V126M,0.062,0.0645,0.0299,0.0685,0.0799,0.0645,0.0651,0.0504,0.0799,0.0745,,,0.0782,0.0806,0.0883,,,0.0572,
V126F,0.0579,0.0706,0.0684,0.0877,0.108,,,0.0657,,0.101,0.0638,,,0.0882,0.0846,0.0645,0.128,0.0746,
V126W,0.0657,0.057,,0.064,0.0807,,0.0609,0.0423,,0.0847,0.0594,0.0599,,0.0995,0.0918,0.0687,,,
T132V,0.106,0.0628,0.0424,0.0596,0.0849,0.0722,0.0732,0.0566,,0.0707,0.0536,,,0.0869,0.0674,0.07,0.0802,0.0591,
M122E,0.0736,0.0862,,,,0.0723,0.0651,0.066,0.0684,,0.0608,0.0826,,0.096,,,0.0662,0.0657,
T129Q,0.0769,0.0757,,0.0512,0.0737,,0.0621,0.0598,,,0.0624,0.072,,0.0648,0.0593,0.0605,0.0559,0.0625,
F117H,0.0659,0.0657,0.0645,0.0875,0.122,,0.0635,0.0608,0.0666,,0.0683,0.0827,,0.0965,0.0861,0.0502,,0.0757,0.0507
T115N,0.0525,0.0667,0.0661,,,,,0.065,0.066,,0.0515,,,0.0601,0.0641,0.0445,,,

# Source: the supplement of paper PMC12217912
